Test system: Caco-2 cells
Test: Caco-2 cell permeability assay
Procedure: BG-323 stock in DMSO was diluted to a final concentration of 5 μM in Hanks Buffered Salt Solution (HBSS) with 1% DMSO. The assay system was a Transwell system containing confluent monolayers of 21-28-day-old Caco-2 cells with 1% bovine serum albumin in HBSS in the receiver well and both apical and basolateral sides at pH 7.4. Monolayer quality was tested using an internal control prior to use by verifying trans-epithelial electrical resistance measurements and calculating the apparent permeability coefficient (Papp) for the control compound prior to monolayer use. Each side of the monolayer, apical for A to B assessment and basolateral for B to A assessment, was dosed twice and resulting flow through was sampled after 120 min. Influx and efflux of BG-323 was quantified using LC-MS/MS with a minimum 4 point standard curve. Percent recovery and the Papp were determined for BG-323 in each direction. Efflux ratio (Papp B to A) / (Papp A to B) was also calculated.

For `CC(C)(C)c1ccc(/C=C2/SC(=S)N(CCC(=O)O)C2=O)cc1` [BG-323, (E)-{3-[5-94-tert-butylbenzylidene0-4-oxo-2-thioxo-1,3-thiazolidin-3-yl]propanoic acid}], the “Permeability Classification” value was “High (high when App is ≥ 1.0 x 10^−6 cm/s^)” and the “Significant Efflux” value was “NO (Significant efflux occurs when the efflux ratio is ≥ 3 and Papp (B to A) ≥ 1.0 x 10^−6 cm/s)”.
